Sequences with one replicate were seen in a single cluster, so their values are uncertain.
System: ATP
Assay: switch fluorescence ratio, 500 uM ATP over buffer (Cy3 cluster intensity, sum of 5 cycles each) (fold (ratio)); higher = stronger signal-on switching upon ATP binding; sequences stand for … in TCGTCGGCAGCGTCAGATGTGTATAAGAGACAGTTTTTTTTTTTTTTTTTTTTTTTTT…TC
Settings: aptamer strand: ATP DNA aptamer (quencher-CACCTGGGGGAGTATTGCGGAGGAAGG + anchor), 100 nM annealed; ATP concentration: 500 uM; one replicate
Summary of the method: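 Clusters carrying Cy3-labelled switching strands on a modified Illumina MiSeq flow-cell were annealed to 100 nM quencher-labelled ATP aptamer and imaged in selection buffer. They were imaged again after 15 min with 500 uM ATP at 22 °C, over five buffer/ATP cycles with NaOH stripping and re-annealing in between. For each cluster, the fluorescence ratio is the summed Cy3 intensity of the target cycles divided by that of the buffer cycles, averaged per switch-domain sequence. Clusters outside 100-1000 RFU were left out.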
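Further: ATP exposure 15 min at 22 °C before imaging.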

Sequence | switch fluorescence ratio
ATTCGGTCGT | 1
ATACTCACAC | 1.37
AGCGGTGTGT | 1.02
TTGCTCCGAG | 1.26
ATTAGTCCGT | 1.01
CTTGCGACAT | 1.08
TTTATATAG | 0.997
CTGGCCGAGG | 1.02
GGCGGAAACG | 0.997
GTTTGATTTG | 0.956
AACTAGACTC | 1.09
CGCACACTTA | 1.36
CGCTACGCTC | 1.49
ACCTTGTGGC | 1.05
TGTCCAAGGT | 1.01
AGGGTCCGAT | 1.04
ATAGACTTAC | 1.27
GGATCTTAGC | 0.971
TACTGTGGCG | 0.98
CATCCTTCCG | 2.01
CTGAGGCGTA | 1.11
AGTGGAACTA | 1.01
GTTCTAGTA | 0.976
ATCTCAATGT | 1.04
TCGGATTCTG | 0.978

Sequence | switch fluorescence ratio
AGCGCGGAAT | 0.921
CAGGGATAGC | 1.06
GTGGATGATG | 0.985
AGAATTGCAA | 1.04
CCAGTTGATC | 0.948
CAATGATCTG | 0.982
CCGGAGAGCC | 1.51
TAAACGAAGG | 0.998
CAGGTTATAA | 0.987
GATACTTCCG | 1.19
CGCGTTATCA | 1.05
GTGATCGTTT | 0.946
GCGTCCTAGT | 1
CCAGGGGACG | 1.13
GCCGGGGATT | 1.11
ACCTGTAGAA | 1.13
TCCAGCTGGG | 1.07
TGTGATGAAG | 0.937
CACGTGGGAC | 1.11
TCCAGTAAAC | 1.24
TTCATTAAAT | 0.982
TTCAATATCG | 1.06
CGTAAGCGC | 1.15
AATTCGAAGG | 0.993
GGAATTATG | 0.949

Sequence | switch fluorescence ratio
GAGCAGGCAC | 1.1
TCGTAGGATA | 1
ACTTAAGACC | 1.06
AGACCTTATG | 0.953
CCGCGGCTGA | 1.12
GTTATCCTAT | 0.995
GCGAGTTTTT | 1
TAGGGCGCA | 0.977
TCAGTAAGT | 0.964
TGAAGGGCTT | 1.01
CAGAATTCGG | 0.949
AGTATACGCC | 1.03
CTCGGTAATT | 1.34
AACCTCACAT | 1.13
AAAGGGGTGT | 1.02
TGTGCGCACC | 1.01
ACTTGAGATG | 1.02
TCAAAGGCAA | 1.65
ATCTGGGCCT | 1.05
TCGGTGATAG | 1.05
TACAATCTCC | 1.43
GAAAACAAGG | 1.07
TCATAGAAGA | 1.03
GTGAGTACAG | 1.03
AACTATATAT | 1.07

Sequence | switch fluorescence ratio
GAGATCACAA | 1.03
AAATAGTCTA | 0.993
AGGAGGGAAA | 1.01
CAATAGAGAT | 1.08
ATATAGCAGT | 1.01
CGTGGTGGTC | 1.01
AAATCCCTGT | 0.967
TACACGAGGG | 0.948
TTCTGTCGGA | 0.989
TGTTTGGTGA | 0.994
AAGTTGCGCC | 1.01
TCAGCTTGCT | 1.01
TTAGCTCGT | 0.994
TTAGCTTATT | 0.983
ACTAGTGGCT | 0.958
CGGCACAACC | 1.07
TTAGTTGCAG | 0.987
CGCCGCCATC | 4.2
TTTGAGTGCA | 0.974
CTGAGTGGAT | 0.989
GAGTAAATCG | 1.03
AATCTATTCA | 1
TGGTATTTAC | 1.15
GGCTAAATTT | 1.02
TGCTCTTCAA | 1.12

Sequence | switch fluorescence ratio
CTGAATAGGA | 0.983
CCACAAGCGC | 1.31
GAGGTACCAA | 0.997
TGGCCCTGGT | 1.02
CTGACGTGTC | 1.31
GCGGATATAC | 3.43
ATAGATGTTT | 0.988
AACTGGGATT | 1.03
CTTCTTGCAC | 1.18
GGTTCGTTTC | 1.02
AAGAAGCCAA | 0.985
TTTAGAGCCG | 0.963
TTACAAAGGT | 0.986
TGACATATC | 1.01
CTAATGAAGT | 1.03
CACTGAAGTA | 0.983
GCTTAGAATA | 1.01
GCGTGGCAAT | 1.06
TCACTAAAGG | 1.01
TTCGGTCAGT | 0.988
TTGTTCTGTT | 0.97
AGGGGTTTTA | 0.998
GTTGCATTTA | 1
ACATAACTTA | 1.12
AATAACAGAC | 1.08

Sequence | switch fluorescence ratio
CTATCAAA | 1.03
CTAAACACCA | 1.02
GGTCCCAGCT | 0.984
TAGTAGATAT | 1
AAGGCAAGTA | 1.03
GGGAACCTAG | 0.986
TGAAGCACC | 1.28
ATGCTACACG | 1.02
AGGGAGCGTA | 1.05
CCCATTTCCT | 1.02
CTTCTGCGTC | 1.05
TGCACAAAGA | 0.966
TAAACATCGA | 0.965
TGGACTTCCT | 1.45
CGCTACTGCA | 1.07
CTCCGGAGG | 1.02
CTATGTCGTA | 1
AATGGTAATG | 1.07
CTAACGTGAA | 1.08
CATCCGGTTG | 1.24
CGAGACGCTG | 1.06
ACTCACTTGT | 1.14
TTCTAGGG | 0.94
CAAGGGCCGT | 0.996
TACGGACTGG | 1.12

Sequence | switch fluorescence ratio
AATGCAAGGG | 1.04
AGAGTTTCCT | 1.01
ATCACGTTTA | 1.01
ATCGGAACCC | 0.988
ATAATTTTCT | 1.01
TCGAGGGATG | 1.03
ATAAAGGGAG | 0.991
AGAGCGTTTG | 0.979
TAGGAATTGC | 1.03
AGGAGGTTGA | 0.954
TGCGTACTGA | 1.04
CCACAAGACC | 2.75
ACTTCTCAAT | 1.31
TAATTCCAAA | 1.04
TCATGGGCGA | 1.02
AATAGGGCGG | 1.02
AGCTAGTCCG | 0.975
AATATATAAT | 0.996
GATCAGAGTG | 1.03
TCGAGCACGA | 1.09
CACGTTTTAA | 1.04
CTAAACGCTA | 1.62
CGGAGGGGTT | 1
TCGGTATACA | 1.02
CTATGAGTTC | 1.01

Sequence | switch fluorescence ratio
AATGAGATCC | 0.971
ACTAAATCAT | 1.04
TTCCGTAGGT | 1.03
ATGCAATTTA | 1.04
TCAACTCCCT | 2.4
GACAATATGT | 1.04
TTGAATGGAA | 1
CGTATAGTTG | 1.03
AGAGATTCGC | 1
CTCTCGGGTT | 0.964
AGGGCGTATG | 1.04
AGTAAAAGGA | 0.986
ATATGGCCCT | 0.989
TAGTGTAGAG | 1.04
ACACGAGTTT | 1.01
TAAGCCTTTC | 1.72
AGCAAGGTTG | 1.01
TAGCCTAGGA | 1.07
GGTTCCTCAA | 1.05
GCTATAGCTA | 1.01
TGTCCTTCTG | 0.972
CCGAGTGCCA | 1.87
GACATTTG | 0.999
ACTGGTGAGG | 1.02
CGGCACAGAG | 1.05

— the supplement of paper PMC10126150
